{"source": "patent US20130178523A1", "about": "“ANTI-CANCER COMPOSITIONS AND METHODS” (THE PENN STATE RESEARCH FOUNDATION, priority 2007, published 2013)", "test_system": "Akt signaling pathway", "assay": "Western blot of Akt signaling pathway in cultured melanoma cells (FIG. 9)", "details": "2.5-15 μM, 24 hours; immunoblot FIG. 9"}
{"smiles": "[Se]=C=NCCCCc1ccccc1", "note": "[ISC-4, Phenylbutyl Isoselenocyanate]", "values": [{"measurement": "phosphorylated (active) Akt (S473) and downstream PRAS40 (T246)", "result": "dose dependent decreases"}]}
{"smiles": "[Se]=C=NCCCCCCc1ccccc1", "note": "[ISC-6, Phenylhexyl Isoselenocyanate]", "values": [{"measurement": "phosphorylated (active) Akt (S473) and downstream PRAS40 (T246)", "result": "dose dependent decreases"}]}
